Measured values taken from publication PMC4336329 (PLoS ONE, 2015).
In all, about 310,000 compounds went through this assay and about 2,200 (0.71%) showed an effect of 50% or more. The effect is printed as a negative number. Some of the results follow.

Biological target: human ether-à-go-go-related gene (hERG) potassium channel (human, UniProt Q12809)
Experiment: primary screen, population patch clamp on CHO cells stably expressing hERG

human ether-à-go-go-related gene (hERG) potassium channel, sequence (Q12809 whole entry, looked up): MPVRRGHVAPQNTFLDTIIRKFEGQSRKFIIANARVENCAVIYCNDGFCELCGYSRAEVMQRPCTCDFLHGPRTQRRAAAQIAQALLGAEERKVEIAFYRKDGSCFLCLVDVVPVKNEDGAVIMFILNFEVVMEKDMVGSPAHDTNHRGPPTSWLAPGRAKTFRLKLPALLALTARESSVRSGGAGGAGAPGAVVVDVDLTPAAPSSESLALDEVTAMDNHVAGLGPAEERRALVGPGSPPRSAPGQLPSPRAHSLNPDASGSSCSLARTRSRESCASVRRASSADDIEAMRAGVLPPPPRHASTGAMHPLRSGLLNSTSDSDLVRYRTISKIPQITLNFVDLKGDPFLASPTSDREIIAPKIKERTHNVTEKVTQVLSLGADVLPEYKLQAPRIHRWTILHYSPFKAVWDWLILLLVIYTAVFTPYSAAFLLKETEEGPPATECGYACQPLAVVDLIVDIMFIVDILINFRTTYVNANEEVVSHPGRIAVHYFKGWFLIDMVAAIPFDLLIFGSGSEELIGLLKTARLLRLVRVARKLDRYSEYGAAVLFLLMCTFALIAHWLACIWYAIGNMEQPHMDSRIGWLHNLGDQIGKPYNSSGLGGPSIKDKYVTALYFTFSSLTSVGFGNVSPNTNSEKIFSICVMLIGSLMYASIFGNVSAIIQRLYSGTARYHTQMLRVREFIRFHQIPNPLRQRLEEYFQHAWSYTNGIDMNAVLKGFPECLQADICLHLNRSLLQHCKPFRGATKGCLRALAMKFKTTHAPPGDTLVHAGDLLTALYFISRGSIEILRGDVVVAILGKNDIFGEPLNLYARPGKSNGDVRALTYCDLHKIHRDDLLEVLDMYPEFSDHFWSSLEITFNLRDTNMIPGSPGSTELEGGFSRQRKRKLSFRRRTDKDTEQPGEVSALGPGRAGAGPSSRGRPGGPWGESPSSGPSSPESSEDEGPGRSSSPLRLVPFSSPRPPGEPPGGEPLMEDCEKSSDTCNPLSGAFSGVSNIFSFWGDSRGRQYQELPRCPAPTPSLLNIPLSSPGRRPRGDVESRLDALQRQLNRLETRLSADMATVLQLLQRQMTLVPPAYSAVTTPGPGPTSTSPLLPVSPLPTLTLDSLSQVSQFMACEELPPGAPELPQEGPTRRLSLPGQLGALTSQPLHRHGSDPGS

Row | SMILES | hERG current change (%, negative = inhibition) at 1uM
1 | Nc1nc2nccc(-c3ccco3)n2n1 | 10.7%
2 | COc1ccccc1/C=N/NC(=O)c1nnn(-c2nonc2N)c1-c1ccccc1 | 10.6%
3 | CN(C)P(=O)(Nc1cccc2ccccc12)Nc1cccc2ccccc12 | 20%
4 | CCOc1ccccc1N1C(=O)CC(Sc2n[nH]c(-c3ccccc3)n2)C1=O (centres unmarked) | 11.9%
5 | N#Cc1ccc(CSc2nc(N)cc(N)n2)cc1 | 11%
6 | COc1cccc(NC(=O)NC2CCN(Cc3nnnn3Cc3ccc4c(c3)OCO4)CC2)c1 | 8.98%
7 | OCCC1CN(Cc2cccn2-c2ccccn2)CCN1C1CCCC1 (centres unmarked) | 3.68%
8 | COC(=O)c1ccc(CSc2nc3c(c(=O)n2-c2ccc(C)cc2)SCC3)o1 | 5.62%
9 | COc1cc(OC)cc(C(=O)NNC(=O)C2CCCC2)c1 | 14.7%
10 | O=C(Cn1ccc([N+](=O)[O-])n1)N1CCCCC1 | -20.2%
11 | CC(C)c1ccc(NS(=O)(=O)c2ccc(N3C(=O)CCC3=O)cc2)cc1 | 10.6%
12 | COC(=O)c1ccc(Cn2nnc3c(=O)[nH]c(C4CCCN(S(=O)(=O)c5ccccc5Cl)C4)nc32)cc1 (centres unmarked) | 5.54%
13 | CCOc1cc(NC(=O)Nc2ccc(F)cc2)c(OCC)cc1NC(=O)CC | 16%
14 | CN(C)Cc1c(O)ccc2cc(-c3nc4ccccc4n3C)c(=O)oc12 | 13.9%
15 | Cc1cc(C)c2c(c1)/C(=N/NS(=O)(=O)c1ccccc1)CCC2 | 6.95%
16 | N/C(=N\S(=O)(=O)c1ccc(Cl)cc1)N1CCOCC1 | 12.4%
17 | Brc1ccc(-c2noc(COc3ccc4c(c3)CCC4)n2)o1 | 5.71%
18 | CCCS(=O)(=O)N1CCN(C(=O)c2cccnc2)CC1 | 11.2%
19 | CCOC(=O)c1cn(-c2ccc(F)c(F)c2F)c2c(F)c(F)c(F)cc2c1=O | 12.9%
20 | CSc1ccc(C2Nc3ccccc3-c3cc(C)nn32)cc1 (centres unmarked) | 1.55%
21 | CCn1c(SCC(=O)N/N=C/C=C\c2ccccc2[N+](=O)[O-])nnc1-c1ccccc1 | -12.5%
22 | O=C(CCC1CCCN(c2ncccn2)C1)NCc1ccccc1F (centres unmarked) | 8.16%

Row | SMILES | hERG current change (%, negative = inhibition) at 1uM
23 | CCCC(c1nnnn1Cc1ccc2c(c1)OCO2)N1CCC(C(N)=O)CC1 (centres unmarked) | 10.3%
24 | O=C(/C=C/c1ccc(S(=O)(=O)N2CCOCC2)cc1)NCCc1ccc(C(F)(F)F)cc1 | 7.7%
25 | CCc1nn(-c2cc(Oc3cccc4ccccc34)nc(-c3ccccc3)n2)c(N)c1C#N | 19.1%
26 | COc1cc(OC)c2cc(C(=O)N[C@@H](Cc3ccccc3)C(=O)O)n(C)c2c1 | 5.81%
27 | CCN(CC)CCN=Cc1c(O)n(CCc2ccccc2)c(=O)[nH]c1=O | 4.58%
28 | COc1ccc(CC(=O)Nc2cccc(C)n2)cc1OC | 9.62%
29 | O=C(O)c1cc(N=Nc2c(O)[nH]c3ccc([N+](=O)[O-])cc23)ccc1Cl | 13.3%
30 | O=C(O)C1(c2cccc(Cl)c2)CCC1 | 13.3%
31 | O=C(Nc1ccc(OC(=O)c2ccncc2)cc1)c1ccncc1 | 14.8%
32 | Cc1ccc(N2CC(C(=O)Nc3ccc(S(=O)(=O)Nc4nccc(C)n4)cc3)CC2=O)cc1 (centres unmarked) | 5.81%
33 | Cc1cc(OCC(=O)Nn2cnnc2)c(C)cc1Br | 8.31%
34 | COc1c(C(=O)NNC(=O)c2ccccc2Cl)csc1Br | -1.89%
35 | O=c1cc(O)nc(SCc2ccccc2)[nH]1 | 6.77%
36 | O=[N+]([O-])c1ccc(CSc2nnc(SCc3ccc(Cl)cc3)s2)cc1 | 2.25%
37 | CCC/C(=N\O)c1c[nH]c2ccccc12 | 11.3%
38 | CCN(c1ccccc1)S(=O)(=O)c1ccc(C(=O)N(C)CCc2ccc(OC)c(OC)c2)cc1 | 11%
39 | CCOc1cc(/C=C(\C#N)C(=O)Nc2cccc(C(=O)O)c2)cc(Br)c1OC(=O)c1ccc(OC)cc1 | 6.38%
40 | c1coc(CN=C2NC(=NCc3ccco3)c3ccccc32)c1 | -30.1%
41 | COc1cccc(C2NC(=O)NC(C)=C2C(=O)Nc2cccc(C)c2C)c1 (centres unmarked) | 11.6%
42 | COCCCN1CC23C=CC(O2)C(C(=O)O)C3C1=O (centres unmarked) | 8.43%
43 | Cc1ccc(Nc2nc(CSc3nnc(-c4ccncc4)n3-c3ccccc3C)cs2)cc1 | 12.6%
44 | CCC1(C)CC(=O)N(c2ccc(F)c(Cl)c2)C(=O)C1 | 10.8%

Row | SMILES | hERG current change (%, negative = inhibition) at 1uM
45 | COc1ccc2c(c1)c(CC(=O)O)c(C)n2C(=O)c1ccc(Cl)cc1 | 15.1%
46 | CCN(CC(=O)Nc1c(F)cccc1F)C(=O)c1csc2c1CCCC2 | 10.9%
47 | O=C(CCc1ccccc1)NNC(=O)Nc1ccc(F)c(Cl)c1 | 13.5%
48 | CC/C(O)=C1\C(=O)CC(C)(C)CC1=NCCc1nc2ccccc2[nH]1 | 15.7%
49 | COc1cc(C(C)=O)ccc1COc1ccc(C(=O)OCC(=O)NC2CCS(=O)(=O)C2)cc1OC (centres unmarked) | 11.3%
50 | COc1ccc(OC)c(NC(=O)c2cccc(N3C(=O)C4C5C=CC(C6CC56)C4C3=O)c2)c1 (centres unmarked) | 18.1%
51 | O=c1[nH]c(=O)n(Cc2ccccc2)c2nc(-c3ccco3)cc(C(F)(F)F)c12 | 19.6%
52 | Cc1cc(=O)oc2c(CN3CCCC3)c(O)ccc12 | 9.13%
53 | COc1cc(C(F)(F)F)nc2ccc(C#CCOC(=O)Nc3ccccc3)cc12 | 14.4%
54 | CC(Oc1ccc(Cl)cc1Cl)/C(N)=N/O (centres unmarked) | 12.9%
55 | Cc1ccc(NC(=O)Cc2nnc(SCC(=O)Nc3nncs3)n2C)cc1 | 8.26%
56 | O=C1c2ccccc2S(=O)(=O)c2cc(C(=O)N3CCN(c4ncccn4)CC3)ccc21 | 12.8%
57 | COc1cc(Cl)cc(C#N)c1OCC(=O)O | 12.2%
58 | O=C(NCCN1C(=O)S/C(=C\c2cccnc2)C1=O)c1cc(S(=O)(=O)N2CCOCC2)ccc1F | 6.29%
59 | O=C1OCc2ccc(NC(=O)c3sccc3Cl)cc21 | -0.0766%
60 | COc1ccc(-c2csc3nc(-c4ccc(C)cc4)oc(=O)c23)cc1OC | 8.18%
61 | NS(=O)(=O)c1ccc(CCNC(=O)CCCn2ncn3c(cc4occc43)c2=O)cc1 | 17.2%
62 | COC(=O)CCN(C(=O)c1cc(OC)c(OC)c(OC)c1)c1ccccn1 | 12.7%
63 | COC(=O)c1sc(-c2cccs2)cc1NC(=O)/C=C/C(=O)O | 19.7%
64 | COC(=O)c1scc(C)c1N/N=C(\C)c1cc(F)c(Cl)cc1F | 17.3%
65 | Cc1ccc(NC(=O)c2cc(S(=O)(=O)NCCc3ccccc3)ccc2F)cc1Cl | 7.45%
66 | CCC(C)Sc1nnc(NS(=O)(=O)Cc2ccccc2)s1 (centres unmarked) | 22.6%

Row | SMILES | hERG current change (%, negative = inhibition) at 1uM
67 | O=C(O/N=C(/c1ccccc1)c1ccncc1)c1ccc(F)cc1 | 6.82%
68 | O=c1c2ccccc2nnn1CSc1nnc(COc2ccc(Cl)cc2)n1Cc1ccco1 | -13%
69 | CC1CC1c1ccc(/C=C(\C#N)C(=O)Nc2ccccc2Cl)o1 (centres unmarked) | 5.73%
70 | CC(C)(C)OC(=O)NCCC(=O)N/N=C/c1ccc2ncccc2c1 | 15.7%
71 | Cn1c(NC(=O)c2ccc(F)c(F)c2)cc(=O)n(C)c1=O | 3.23%
72 | NC(=O)CSc1nnc(Cn2c(=O)sc3ccccc32)n1-c1cccc(Cl)c1 | 14%
73 | CN(C)c1ccc(/C=C/[N+](=O)[O-])cc1 | 4%
74 | Cc1cc(/C=C2/C(=N)N3C(=NC2=O)SN=C3S(C)(=O)=O)c(C)n1-c1ccc(F)cc1 | 27.7%
75 | CC1CCN(c2ccc3nnc(CCC(=O)Nc4cccc(F)c4)n3n2)CC1 | 2.38%
76 | CCN(CC)S(=O)(=O)c1ccc(N2CCCC2)c(NC(=O)C2=NN(c3ccccc3)C(=O)CC2)c1 | 1.57%
77 | N#Cc1ccccc1/C=N/Nc1nc(-c2ccccc2)c2cc(Cl)ccc2n1 | -3.61%
78 | CN(C)CCNc1nc2c(c(=O)[nH]c(=O)n2C)n1CCOc1ccccc1 | 0.0662%
79 | CCOC(=O)c1ccc(NC(=O)COc2ccccc2CNCCO)cc1 | -0.0968%
80 | Cc1ccnc(NC(=O)c2cccc(S(=O)(=O)N3CCOCC3)c2)c1 | -5.09%
81 | Cc1ccc(NS(=O)(=O)c2ccc(C(=O)NCC(c3ccco3)N(C)C)cc2)cc1 (centres unmarked) | 5.78%
82 | Cc1ccc(C(=O)Nc2nnc(-c3cccs3)s2)cc1C | 7.89%
83 | O=C(Nc1ccn(Cc2c(F)c(F)cc(F)c2F)n1)c1ccc(COc2ccc(Cl)cc2Cl)o1 | 7.71%
84 | COc1cccc(-c2noc(CCC(=O)NCC3CCCO3)n2)c1 (centres unmarked) | 8.88%
85 | O=C(NCCN1CCOCC1)c1ccccc1-c1ccccc1 | 5.47%
86 | COc1cccc(CN(C)C(=O)C(CCSC)NS(=O)(=O)c2ccc3c(c2)OCCO3)c1OC (centres unmarked) | 6.03%
